Experimental data: PubChem BioAssay AID1461 (National Center for Advancing Translational Sciences (NCATS), 2008)
In all, about 220,000 compounds went through this assay and about 2,300 (1%) were called active. Inconclusive means that the source gave no clear call. Such entries were picked first, then a sample of the others. Calls follow the shape of the dose curve; as a rule, active = well fitted inhibition curve with a large enough effect; inconclusive = small, poorly fitted or top-dose-only effect, or effect the other way; inactive = no such curve, though single readings can be large or run the other way. No potency is given beside an inconclusive call; the fits are too rough.

molecular target: Neuropeptide S receptor (Homo sapiens) (UniProt Q6W5P4); test: qHTS Assay for Antagonists of the Neuropeptide S Receptor: cAMP Signal Transduction; settings: CHO-NPSR cells, cAMP TR-FRET, antagonist mode; activity change, negative = inhibition: at 38.3 µM (top of the series) unless noted; also: nearly all actives have a fitted effect of over 50% in size
% is scaled to controls: 0 for no effect and ±100 for the full control effect; potency is read from the fitted curve at half-maximal effect; tags tell the direction and shape of the fitted curve.

UniProt Q6W5P4, sequence (Q6W5P4 whole entry, looked up): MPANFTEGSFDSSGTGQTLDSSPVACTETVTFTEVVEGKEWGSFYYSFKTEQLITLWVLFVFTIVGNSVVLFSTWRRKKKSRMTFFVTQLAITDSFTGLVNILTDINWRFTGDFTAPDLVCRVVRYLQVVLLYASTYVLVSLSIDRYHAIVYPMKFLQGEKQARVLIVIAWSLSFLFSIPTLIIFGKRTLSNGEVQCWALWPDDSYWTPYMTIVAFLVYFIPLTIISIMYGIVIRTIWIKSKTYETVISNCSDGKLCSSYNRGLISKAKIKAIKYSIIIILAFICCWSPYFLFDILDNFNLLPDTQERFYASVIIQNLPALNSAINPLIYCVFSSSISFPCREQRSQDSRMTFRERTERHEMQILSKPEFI

Row | SMILES | activity change, negative = inhibition | Potency
1 | CN=C(c1ccco1)n1c(=S)nc(-c2ccco2)n(C)c1=S | inactive: -15.1% [at 46.1 µM] | 
2 | c1ccc(-c2nn3c(Cn4nnc5ccccc54)nnc3s2)cc1 | inactive: -16.8% [at 46.1 µM] | 
3 | CC(C)(C)n1nnnc1C(c1cccs1)N(Cc1cccnc1)Cc1ccco1 (centres undefined) |  | inconclusive [inhibitor, single point]
4 | COc1cccc(C(=O)N2CCN(C(=O)Cc3ccccc3)CC2)c1 | inactive: 6.02% | 
5 | Cc1ccccc1-c1ccc(=O)n(CC(=O)Nc2ccc(C(=O)N3CCCC3)cc2)n1 | inactive: -3.15% [at 46.1 µM] | 
6 | CC[C@@H]1Cc2cc(O)ccc2C2=C1c1ccc(O)cc1C[C@H]2CC |  | inconclusive [inhibitor, partial curve]
7 | COc1ccc(-c2cc(-c3ccccc3)c(C#N)c(S(C)=O)n2)cc1 (centres undefined) |  | inconclusive [inhibitor, partial curve]
8 | Cc1ccc(C)c(N2CCN(S(=O)(=O)c3c(C)noc3/C=C/N(C)C)CC2)c1 |  | inconclusive [inhibitor, partial curve]
9 | O=C(NCc1n[nH]c(=S)n1-c1ccc(Cl)c(Cl)c1)c1ccc(S(=O)(=O)N2CCOCC2)cc1 | inactive: 6.55% | 
10 | O=C(Nc1cccc(F)c1)N1CC=C(n2c(=O)[nH]c3ccccc32)CC1 | inactive: -17.4% [at 46.1 µM] | 
11 | Cc1ccc(C)c(C2=NNC(=NCc3ccccc3)SC2)c1 | inactive: -27.1% | 
12 | CCN1CCCC1CN(Cc1cc2c(C)cc(C)cc2[nH]c1=O)C(=O)NC1CCCCC1 (centres undefined) |  | inconclusive [inhibitor, partial curve]
13 | Cc1ccc(NC(=O)CSc2nc3ccccc3c(=O)n2CCCN2CCCCC2)cc1Cl |  | inconclusive [inhibitor, single point]
14 | COc1cc(C(=O)Nc2ccc(-c3nc4cc(C)ccc4o3)c(O)c2)cc(OC)c1OC | inactive: -4.84% [at 46.1 µM] | 
15 | COc1ccccc1NS(=O)(=O)c1cccc(-n2c(O)c(C=Nc3ccccc3C(=O)O)c3ccccc3c2=O)c1 |  | inconclusive [inhibitor, single point]
16 | N#CC(c1ccccc1)c1ccc2c(C(F)(F)F)cc(C(F)(F)F)nc2n1 (centres undefined) |  | inconclusive [inhibitor, single point]
17 | COC(=O)C(=Cc1ccccc1[N+](=O)[O-])C(=O)OC |  | inconclusive [activator, partial curve]
18 | O=C(NCc1ccco1)c1sc2cccc(F)c2c1Cl |  | inconclusive [inhibitor, single point]
19 | O=C(CN(Cc1ccccc1Cl)C(=O)c1ccc(CN2CCOCC2)o1)NCc1ccccc1 |  | inconclusive [inhibitor, single point]
20 | CCCCCCn1c(SCC(=O)c2ccccc2)nc2c1c(=O)[nH]c(=O)n2C |  | inconclusive [inhibitor, single point]
21 | Cc1nc(SCC(=O)Nc2ccccc2C(F)(F)F)c(C#N)c(C)c1CC(=O)c1ccc(Br)cc1 |  | active: 10 µM
22 | Cc1cc(=O)n2c(nc3ccccc32)[nH]1 | inactive: -5.55% [at 46.1 µM] | 

Row | SMILES | activity change, negative = inhibition | Potency
23 | COc1ccc(O)c(C(=O)c2cnn(-c3ccccn3)c2)c1 | inactive: -15% | 
24 | O=C(Cc1ccccc1)N/N=C/c1ccccc1Cl | inactive: -1.44% [at 46.1 µM] | 
25 | CN(C)c1cccc(NC(=O)CCc2ccccc2)c1 | inactive: 0.397% [at 46.1 µM] | 
26 | Cc1ccc(S(=O)(=O)NC(C)C(c2cccs2)N2CCN(c3ccccc3)CC2)cc1 (centres undefined) |  | inconclusive [inhibitor, partial curve, poor fit]
27 | CCOc1ccc(-n2c(-c3ccc(Br)cc3)c[n+]3c2CCCCC3)cc1 | inactive: 1.24% | 
28 | O=[N+]([O-])c1cccc(-c2nnc3ccc4ccccc4n23)c1 |  | inconclusive [inhibitor, single point]
29 | Cc1ccnc(NC(=O)CSc2cc(=O)n(C)c3ccccc23)c1 |  | inconclusive [inhibitor, single point]
30 | CC(C)(C)C(=O)Nc1cc(S(=O)(=O)N2CCCCC2)ccc1N1CCCCC1 |  | inconclusive [inhibitor, single point]
31 | CCOc1ccc(NS(=O)(=O)c2ccc(NS(=O)(=O)c3ccc(SC)cc3)cc2)cc1 |  | inconclusive [inhibitor, single point]
32 | COc1cccc(C(=O)/C=C/Nc2ccc(S(=O)(=O)Nc3cccc(C(C)=O)c3)cc2)c1 |  | inconclusive [inhibitor, full curve]
33 | CN(C)/C=C(\C=O)c1c(Cl)cccc1Cl | inactive: 11.2% | 
34 | Cc1onc(-c2ccccc2)c1CNS(=O)(=O)c1ccccc1 |  | inconclusive [activator, single point]
35 | CC1Cc2ccccc2N1C(=O)CSc1nnc(NC(=O)Cc2cccs2)s1 (centres undefined) |  | active: 12.6 µM
36 | CC(C)(C)[C@H]1C=C(C(=O)Nc2ccccc2)O[C@@H](OCc2ccc(CO)cc2)C1 |  | inconclusive [activator, single point]
37 | CC(C)N(C(=S)Nc1cccc(C(F)(F)F)c1)C(C)c1ccccn1 (centres undefined) |  | inconclusive [inhibitor, single point]
38 | CN1c2ccccc2C(C)(C)C12C=Nc1c(cc(N3CCOCC3)c3ccccc13)O2 (centres undefined) |  | inconclusive [inhibitor, partial curve]
39 | N=c1c2c(-c3ccccc3)c(-c3ccccc3)oc2ncn1CCCN1CCOCC1 |  | inconclusive [inhibitor, partial curve]
40 | CCOC(=O)CCSc1nc2c(c(C(F)(F)F)c1C#N)CCC2 |  | inconclusive [inhibitor, partial curve]
41 | COc1ccc(-c2cc(C(=O)Nc3c(C)nn(Cc4ccccc4Cl)c3C)no2)cc1OC |  | inconclusive [inhibitor, partial curve, poor fit]
42 | O=S(=O)(c1cccc(S(=O)(=O)N2CCC(n3nnc4ccccc43)CC2)c1)N1CCCCC1 |  | inconclusive [inhibitor, partial curve]
43 | COC(=O)c1c(NC(=O)C2COc3ccccc3O2)sc2c1CCN(Cc1ccccc1)C2 (centres undefined) | inactive: -10.4% | 
44 | CC(=O)OC1COC(OC2C(O)C(C)OC(OC3C(OC4CCC5(C)C(CCC6(C)C5CC=C5C7CC(C)(C)CCC7(C(=O)O)CCC56C)C4(C)CO)OCC(O)C3O)C2O)C(O)C1OC(C)=O (centres undefined) |  | inconclusive [activator, partial curve]
